# Experimental data taken from paper PMC4336329 (PLoS ONE, 2015).
# Screen size: about 310,000 compounds; about 14,000 (4.5%) showed an effect of 50% or more. Effects have a minus sign here. Some of the results follow.
# Molecular target: human ether-à-go-go-related gene (hERG) potassium channel (human, UniProt Q12809)
# Assay: primary screen, population patch clamp on CHO cells stably expressing hERG
# 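Note: peak tail current of the secondary pulse compared with the same well before compound.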
# Chain of human ether-à-go-go-related gene (hERG) potassium channel (Q12809 whole entry, looked up): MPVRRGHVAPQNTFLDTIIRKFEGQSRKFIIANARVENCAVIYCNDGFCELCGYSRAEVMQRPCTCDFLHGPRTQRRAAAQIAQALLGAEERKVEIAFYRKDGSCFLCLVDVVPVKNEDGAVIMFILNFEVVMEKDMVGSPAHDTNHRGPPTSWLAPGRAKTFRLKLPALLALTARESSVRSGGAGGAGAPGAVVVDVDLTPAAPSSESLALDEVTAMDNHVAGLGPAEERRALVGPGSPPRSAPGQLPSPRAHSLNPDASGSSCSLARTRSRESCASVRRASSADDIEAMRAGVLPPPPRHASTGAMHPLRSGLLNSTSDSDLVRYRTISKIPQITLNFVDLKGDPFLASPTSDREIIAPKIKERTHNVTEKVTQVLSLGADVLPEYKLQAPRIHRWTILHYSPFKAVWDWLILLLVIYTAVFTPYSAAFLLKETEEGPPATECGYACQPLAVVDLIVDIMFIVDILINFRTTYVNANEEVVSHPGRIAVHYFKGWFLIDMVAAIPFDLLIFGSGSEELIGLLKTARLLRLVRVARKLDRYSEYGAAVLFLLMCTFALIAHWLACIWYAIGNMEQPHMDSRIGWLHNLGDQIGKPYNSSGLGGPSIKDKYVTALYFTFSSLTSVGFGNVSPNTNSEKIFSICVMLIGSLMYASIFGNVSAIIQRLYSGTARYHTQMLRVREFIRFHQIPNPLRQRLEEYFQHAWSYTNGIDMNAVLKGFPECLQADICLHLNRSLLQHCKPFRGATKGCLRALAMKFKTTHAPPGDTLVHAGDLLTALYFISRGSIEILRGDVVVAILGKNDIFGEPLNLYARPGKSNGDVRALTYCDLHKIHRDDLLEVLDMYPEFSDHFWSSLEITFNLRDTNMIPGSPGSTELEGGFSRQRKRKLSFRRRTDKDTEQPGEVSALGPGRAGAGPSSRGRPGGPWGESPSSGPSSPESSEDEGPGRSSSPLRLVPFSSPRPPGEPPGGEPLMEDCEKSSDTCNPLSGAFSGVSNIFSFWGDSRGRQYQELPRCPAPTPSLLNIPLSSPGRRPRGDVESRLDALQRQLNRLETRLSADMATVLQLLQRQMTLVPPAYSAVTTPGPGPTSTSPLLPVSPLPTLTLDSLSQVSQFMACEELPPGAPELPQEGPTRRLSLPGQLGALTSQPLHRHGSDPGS
row,SMILES,"hERG current change (%, negative = inhibition) at 10uM [%]"
1,O=C(C1CCCN(S(=O)(=O)c2cccnc2)C1)N1CCn2c1nc1ccccc12 (stereo not drawn),-15.3
2,C=Cn1ccnc1P(=S)(c1ccc2c(c1)c1ccccc1n2CC)c1nccn1C=C,-5.65
3,Cc1ccc(Oc2ccc(NC(=O)C3=CC=CN4CCS(=O)(=O)N=C34)cc2)cc1,-7.39
4,Cc1ccc(NC(=O)Nc2cccnc2)cc1,-15
5,COc1ccccc1OCc1nnc(SCC(=O)Nc2ccc(C)cc2)n1C,-10.7
6,COCCN(C(=O)CSc1nc2ccccc2c(=O)n1CC(C)C)c1c(N)n(Cc2ccccc2)c(=O)[nH]c1=O,-32
7,CCOc1ccccc1C(=O)Nc1c[nH]c(=O)[nH]c1=O,15
8,CS(=O)(=O)c1ccc([C@@H](O)[C@@H](CF)NC(=O)C(Cl)Cl)cc1,-5.39
9,C/C(=N\NC(=O)c1cc(-c2cccnc2)nc2ccccc12)c1ccccc1O,0.355
10,COC(=O)c1ccc(CSc2nc3sc(C)c(C)c3c(=O)[nH]2)cc1,0.764
11,CCN(CC)C(=O)C1CCCN(c2ncnc3c2cnn3-c2ccc(Cl)cc2)C1 (stereo not drawn),-38.5
12,COc1ccc(NS(=O)(=O)c2cccs2)cn1,-0.608
13,COc1ccc(C)cc1NC(=O)CN1CCN(c2ccc(F)cc2)CC1,-50.4
14,CCC(C)[C@H](NC(=O)NCCC1=CCCCC1)C(=O)OC (stereo partly drawn),-2.24
15,CCc1cc(=O)oc2cc(C)cc(OC(C)C(=O)O)c12 (stereo not drawn),-2.21
16,COc1cc2c(cc1OC)CN(C(=S)Nc1ccccc1Cl)CC2,8.88
17,O=C(OCC(=O)N1CCN(C(=O)c2ccco2)CC1)c1ccccc1C(=O)c1ccccc1,-34
18,CNc1nc(C23CC4CC(CC(C4)C2)C3)cs1,33.1
19,Cc1ccc(/C=N/NC(=O)Cn2ccc(C(F)(F)F)n2)o1,12.8
20,COC(=O)c1cccc(NC(=S)NCc2ccc(F)cc2)c1,-3.94
21,Cc1sc2ncnc(-n3cnc4ccccc43)c2c1C,2.29
22,O=S(=O)(Nc1ccc(S(=O)(=O)Nc2ccccc2)cc1)c1ccccc1,-25
23,COc1cccc(C(=O)N2CCN(C(=O)c3cccc4ccccc34)CC2)c1OC,-2.48

row,SMILES,"hERG current change (%, negative = inhibition) at 10uM [%]"
1,COc1cccc(NC(=O)CN(C)C(=O)CNC(=O)c2ccccc2F)c1,16.4
2,CCC(CO)Oc1cc(NC(=O)c2ccc(C)cc2)c2ncn(C(C)C)c2c1 (stereo not drawn),-3.36
3,Cc1cc(C)n(C(=O)c2ccc(C)c(Br)c2)n1,27.7
4,Cc1cc(Cl)ccc1OC(C)C(=O)NC(C)C1CCCO1 (stereo not drawn),-6.42
5,COC(=O)c1ccc(N2OC3(C)C=CC2CC3)cc1 (stereo not drawn),10.9
6,CC(C)CCCN1C(N(C)C)=NC[C@@H]1Cc1ccccc1,-24.9
7,Nc1nc(N2CCN(c3ccccc3)CC2)n[nH]1,4.2
8,Fc1ccc(CNCCc2ccc3c(c2)OCO3)cc1,-3.52
9,O=S(=O)(c1ccc(F)cc1)N1CCC(O)(c2ccc3c(c2)OCO3)CC1,-42
10,CC(C)=C1SC(N2CCOCC2)=NC1=O,14
11,O=C(C[n+]1ccc(C(=O)NCc2ccccc2)cc1)c1ccc(OC(F)F)cc1.[Br-],-92.8
12,COc1ccc(NC(=O)C2CCCN(S(=O)(=O)c3cccnc3)C2)cc1OC (stereo not drawn),16.2
13,Cc1ccc(C(=O)Nc2cccc(NC(=O)c3ccc(C)cc3)n2)cc1,2.01
14,CCCCCn1c(=O)[nH]c2cc(C(=O)NCCCN3CCCCC3CC)ccc2c1=O (stereo not drawn),-40
15,COCCN1C(=O)N[C@@H](c2ccccc2)C(C(C)=O)=C1C,19.7
16,O=C(c1ccc(S(=O)(=O)N2CCCCCC2)cc1)N1CCN(Cc2ccccc2)CC1,-19.5
17,Cc1ccccc1Nc1c(-c2cccnc2)nc2ccccn12,-24.7
18,Cc1ccc(OCCC(=O)OCC(=O)Nc2ccc(N3CCOCC3)cc2)cc1,14
19,O=C(NN1CCOCC1)c1ccc(Br)cc1,7.01
20,O=C(c1ccc([N+](=O)[O-])s1)N1CCCc2ccccc21,-4.43
21,Cc1ccc([N+](=O)[O-])cc1NC(=O)c1ccccc1,-27.3
22,COc1cc2[nH]c(C(=O)N3CCN(c4ccc(F)cc4)CC3)cc2c(OC)c1OC,17.9
